The campaign covered roughly 310,000 compounds. About 14,000 (4.5%) showed an effect of 50% or more. Effects have a minus sign here. The list shows a part of the results.
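Note: peak tail current of the secondary pulse compared with the same well before compound.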

Sequence of human ether-à-go-go-related gene (hERG) potassium channel (Q12809 whole entry, looked up): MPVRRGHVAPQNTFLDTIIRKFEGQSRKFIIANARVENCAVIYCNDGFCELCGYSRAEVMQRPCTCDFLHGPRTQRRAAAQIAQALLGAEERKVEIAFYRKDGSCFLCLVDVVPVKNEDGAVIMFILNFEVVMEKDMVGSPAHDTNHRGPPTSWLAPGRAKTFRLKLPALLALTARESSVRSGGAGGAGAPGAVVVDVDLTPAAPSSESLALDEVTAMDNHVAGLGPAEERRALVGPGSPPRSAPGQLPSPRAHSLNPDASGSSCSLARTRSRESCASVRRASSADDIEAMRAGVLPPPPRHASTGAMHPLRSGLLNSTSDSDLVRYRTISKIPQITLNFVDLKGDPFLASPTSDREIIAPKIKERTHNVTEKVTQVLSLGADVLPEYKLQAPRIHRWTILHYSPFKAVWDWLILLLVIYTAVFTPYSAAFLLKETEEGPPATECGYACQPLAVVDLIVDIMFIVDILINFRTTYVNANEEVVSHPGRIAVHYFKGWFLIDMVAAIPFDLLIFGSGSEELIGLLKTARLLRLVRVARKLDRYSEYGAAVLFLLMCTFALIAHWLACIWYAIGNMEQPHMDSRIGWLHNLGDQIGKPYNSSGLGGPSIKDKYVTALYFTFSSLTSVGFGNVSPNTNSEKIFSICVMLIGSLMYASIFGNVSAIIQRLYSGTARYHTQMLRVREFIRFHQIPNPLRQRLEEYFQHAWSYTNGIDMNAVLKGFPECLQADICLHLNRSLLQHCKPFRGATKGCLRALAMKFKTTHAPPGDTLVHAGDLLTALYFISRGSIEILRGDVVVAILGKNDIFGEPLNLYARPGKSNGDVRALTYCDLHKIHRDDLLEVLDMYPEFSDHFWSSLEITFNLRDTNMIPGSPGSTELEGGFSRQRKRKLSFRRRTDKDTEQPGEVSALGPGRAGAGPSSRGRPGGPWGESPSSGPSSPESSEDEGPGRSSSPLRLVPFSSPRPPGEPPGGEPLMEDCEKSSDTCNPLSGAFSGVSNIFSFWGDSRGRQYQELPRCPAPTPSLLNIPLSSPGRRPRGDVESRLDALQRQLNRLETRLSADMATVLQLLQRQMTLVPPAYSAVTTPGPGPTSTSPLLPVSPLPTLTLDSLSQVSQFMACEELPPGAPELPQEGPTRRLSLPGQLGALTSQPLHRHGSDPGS

The test concerns the target human ether-à-go-go-related gene (hERG) potassium channel (human, UniProt Q12809). Description: primary screen, population patch clamp on CHO cells stably expressing hERG.
`CCN1CCN(c2nc3c(c(=O)[nH]2)CCC3)CC1`: the “hERG current change (%, negative = inhibition) at 10uM” value was 8.17%.

With `CN(Cc1cnn(-c2ccc(F)cc2)c1)Cc1nc(Cc2ccccc2)no1`, the “hERG current change (%, negative = inhibition) at 10uM” value is on record as -27.1%. With `Cc1ccccc1N1CCN(C2CCCN(C(=O)c3cc(C(C)C)[nH]n3)C2)CC1` (stereo not shown) the figure was -61.2%; with `COc1ccc(NC(=O)CO/N=C2/CCCc3nonc32)c(OC)c1`, 11.1%; with `CC(c1n[nH]c(=S)n1-c1ccccc1)N1CCCCC1` (stereo not shown), 35.4%. With `O=C(Nc1ccc(-c2nc3ccccc3[nH]2)cc1)C1CCCO1` (stereo not shown) the figure was -2.57%; with `COC(=O)C1=C(c2ccc(F)cc2OCc2ccccc2)C[C@@H]2CC[C@H]1N2C(=O)NCCOc1ccc(OC)cc1`, 7.46%. As for `C=C1CC2C(=O)N(Cc3ccccc3)C(C(=O)OCC)(C(=O)OCC)C1N2C(=O)OC(C)(C)C` (stereo not shown), the figure is -7.05%; as for `COCCCNCCCOc1ccc(C(C)(C)c2ccccc2)cc1.O=C(O)C(=O)O`, -19.9%; as for `O=C(NCCCN1CCOCC1)c1ccc2c(c1)N(Cc1cccc(Cl)c1)C(=O)c1ccccc1S2=O` (stereo not shown), -25.9%.

`CC(=O)OCC1OC(n2ccc3ccccc32)C(OC(C)=O)C(OC(C)=O)C1OC(C)=O` (stereo not shown): the “hERG current change (%, negative = inhibition) at 10uM” value is reported as 0.0107%. Turning to `Cc1cc(C)c(N)c(C(=O)O)c1`, the “hERG current change (%, negative = inhibition) at 10uM” value is 7.17%.

Take `CC1CCCCC1NCC(=O)Nc1ccccc1-c1ccccc1.O=C(O)C(=O)O` (stereo not shown): the “hERG current change (%, negative = inhibition) at 10uM” value is listed as -13.4%. Take `COc1ccc(/C=C(/NC(=O)c2ccccc2OC)C(=O)Nc2ccc(C(=O)O)cc2)cc1`: the “hERG current change (%, negative = inhibition) at 10uM” value stood at 7.22%.

Take `Cc1ccc(NC(=O)CN(c2ccccc2F)S(C)(=O)=O)cc1`: the “hERG current change (%, negative = inhibition) at 10uM” value turned out to be 5.51%. As for `CSc1ccc(S(=O)(=O)NC(C)c2ccccc2)cc1` (stereo not shown), the figure is 8.51%; as for `CCC(C)NC(=O)Nc1ccccc1F` (stereo not shown), -24.5%; as for `COc1cc(OC)c(NS(=O)(=O)c2cn(C)cn2)cc1Cl`, 5.67%.

As to `O=C(COC(=O)c1cc(Br)ccc1O)NC1CCCCCC1`, the “hERG current change (%, negative = inhibition) at 10uM” value was -20%. Consider `CCc1nc(SCC(=O)N2c3ccccc3CC2C)c2c(C)c(C)sc2n1` (stereo not shown), for which the “hERG current change (%, negative = inhibition) at 10uM” value is recorded as -5.78%. As for `CCOC(=O)c1ccc2c(c1)n(CC)c(/C=C/N(C)c1ccccc1)[n+]2CC.[I-]`, the figure is -74.3%. Take `Cc1cccc2sc(N(CCCN3CCOCC3)C(=O)CS(=O)(=O)c3ccc(F)cc3)nc12.Cl`: the “hERG current change (%, negative = inhibition) at 10uM” value is on record as -16.9%. With `Cc1c(C(=O)NN)nn(-c2ccc(F)cc2)c(=O)c1C#N` the figure was 15.4%; with `COc1ccc2c(c1)C(=NNc1ccc(C(=O)O)cc1)c1cc(OC)ccc1-2`, -19.6%; with `Cc1ccc(-c2[nH]ncc2/C=N/n2c(COc3ccccc3)nc3ccccc3c2=O)cc1`, -20.2%. As for `O=C(c1ccc(S(=O)(=O)N2CCC(c3nc4ccccc4s3)CC2)cc1)N1CCOCC1`, the “hERG current change (%, negative = inhibition) at 10uM” value is 3.49%. As for `NC(=O)c1c(NC(=O)c2cnccn2)sc2c1CCCC2`, the figure is 16.6%; as for `CC(=O)c1cccc(NC(=O)CCNS(=O)(=O)c2cccc(C(C)=O)c2)c1`, 1.13%; as for `COc1ccc(-c2csc(-c3ccc(O)cc3)n2)cc1`, 7%. With `COC(=O)c1ccc(NC(=O)COc2ccccc2OC)cc1` the figure was 15.6%. For `Cc1ccc(S(=O)(=O)N2CCCCC2)cc1NC(=O)[C@@H]1CCCN1C(=O)c1cccs1`, the “hERG current change (%, negative = inhibition) at 10uM” value is listed as -13.3%. For the compound `CCOCC(=O)OCC(=O)NC12CC3CC(CC(C3)C1)C2`, the “hERG current change (%, negative = inhibition) at 10uM” value is reported as -3.4%. As for `COC(=O)C(N)Cc1ccc(Cl)cc1.Cl` (stereo not shown), the figure is -2.67%; as for `CCN(CC)CCN1C(=O)C2C(C(=O)Nc3ccc(C(C)C)cc3)C3C=CC2(O3)C1C(=O)NC1CCCCC1` (stereo not shown), -12%; as for `ClCCOCCCl`, 11.4%. `Cc1ccccc1-c1noc(-c2ccccc2C(=O)NCc2ccco2)n1`: the “hERG current change (%, negative = inhibition) at 10uM” value is on record as -3.37%.

For the compound `COc1ccccc1C(=O)NNC(=O)c1cccc(C)c1`, the “hERG current change (%, negative = inhibition) at 10uM” value was determined as 20.7%.

In the case of `Cc1ccc(NC(=O)CSc2nnc(CCCCCNC(=O)OC(C)(C)C)o2)c(C)c1`, the “hERG current change (%, negative = inhibition) at 10uM” value is on record as -34.2%.

With `NC(=O)c1sc2nc(-c3ccccc3)c3c(c2c1N)CCCC3`, the “hERG current change (%, negative = inhibition) at 10uM” value is recorded as 10.2%. Turning to `COc1ccc(CN=C(Nc2ccccc2)SC2CC(=O)N(C)C2=O)cc1` (stereo not shown), the “hERG current change (%, negative = inhibition) at 10uM” value is listed as 4.51%. With `CCOc1ccc(Nc2nc(-c3cccnc3)cs2)cc1`, the “hERG current change (%, negative = inhibition) at 10uM” value is given as 19.6%. As for `CC(=O)N1c2ccc(S(=O)(=O)N3CCC(C(=O)NC4CCCC(C)C4C)CC3)cc2CC1C` (stereo not shown), the figure is -1.22%; as for `CCOC(=O)c1cc(C#N)c(N2CCN(C(=O)c3ccccc3)CC2)nc1C(F)(F)F`, -37.7%. With `COC(=O)C1=C(C)N(C)C(C)=C(C(=O)OC)C1c1ccncc1` the figure was -1.51%. As for `CCOc1ccc(N(Cc2cc3cc(C)ccc3[nH]c2=O)C(=O)COC)cc1`, the figure is 9.25%; as for `COc1ccccc1N1CCN(C(=O)c2cccc(N3C(=O)NC4CC3(C)Oc3c(OC)cccc34)c2)CC1` (stereo not shown), 7.1%; as for `CCOC(=O)N1CCC(n2c(SCC(=O)Nc3ccccc3OC)nc3ccccc3c2=O)CC1`, -66.4%. As for `C(#CCN1CCOCC1)COCCCOC(c1ccccc1)c1ccccc1`, the “hERG current change (%, negative = inhibition) at 10uM” value is -4.82%. Turning to `Cc1ccnc(OC(C(=O)O)C(OCc2ccccc2)(c2ccccc2)c2ccc(C(F)(F)F)cc2)n1` (stereo not shown), the “hERG current change (%, negative = inhibition) at 10uM” value is 26.4%. For the compound `CCNC(=S)Nc1ccc(Cc2nc3ccccc3[nH]2)cc1`, the “hERG current change (%, negative = inhibition) at 10uM” value was 9.19%. As for `N=c1c2ccccc2nnn1-c1ccc(C(F)(F)F)cc1`, the figure is 11.8%. As for `COc1ccc(CCNC(=O)c2cc(-c3cc(C)c(C)cc3O)n[nH]2)cc1OC`, the “hERG current change (%, negative = inhibition) at 10uM” value is listed as -4.54%. With `O=C(NCCO)c1ccc2nc(-c3ccco3)c(-c3ccco3)nc2c1` the figure was 7.6%; with `Cc1ccc(NC(=O)c2ccccc2)cc1C`, 15.5%. As for `COc1cc(/C=C/C(=O)OCc2c(C)noc2C)ccc1OC(F)F`, the figure is -10.7%.

Source of the values: article PMC4336329 (PLoS ONE, 2015).
